Data: publication PMC7038631 (Alzheimer's & dementia : the journal of the Alzheimer's …, 2019)

molecular target: full-length 2N4R WT tau oligomers (tau-GFP/RFP FRET biosensor) (Homo sapiens, UniProt P10636); test: WT tau inter-molecular FRET biosensor; conditions: 10 μM, 2 hours, HEK293 WT tau biosensor

| Decrease in FRET efficiency below the mean of all wells in NCC screen [SD] | Compound |
| --- | --- |
| > 5 | CCCCNc1cc(C(=O)O)cc(S(N)(=O)=O)c1Oc1ccccc1 [Bumetanide] |
| > 5 | Cc1cccc(Nc2ccncc2S(=O)(=O)NC(=O)NC(C)C)c1 [Torsemide] |
| > 5 | CCc1oc2ccccc2c1C(=O)c1cc(Br)c(O)c(Br)c1 [Benzbromarone] |

| Compound | Decrease in FRET efficiency below the mean of all wells in NCC screen [SD] |
| --- | --- |
| Oc1cc(Cl)ccc1Oc1ccc(Cl)cc1Cl [Triclosan] | > 5 |
| CC(C)c1ccc2c(c1)c(SC(C)(C)C)c(CC(C)(C)C(=O)O)n2Cc1ccc(Cl)cc1 [MK-886] | > 5 |

same assay, conditions: HEK293 WT tau biosensor

| Sensitivity of tau FRET biosensor to addition of compound | Compound |
| --- | --- |
| sensitive | C=C[C@@]1(C)CC(=O)[C@]2(O)[C@@]3(C)[C@@H](O)CCC(C)(C)[C@@H]3[C@H](O)[C@H](OC(C)=O)[C@@]2(C)O1 [forskolin] |
